# Results published in the supplement of paper PMC8728848.
# Some of the results follow.
# B1: AFCNVH (Aspergillus fumigatus) (protein)
# chain: MSLRGFHTTCDTIVLKDKHILSSRCKRPDGTYSFSEIDLNDCLGNNNGKFVWGGESFVDSASQVNLALEGGEGRPMLHAQLNDWHGSVQSASVNLGECIQNEAGGLEYMHC
# Tests used:
# Assay in all cases: glycan array binding signal (z-score within array); higher = stronger binding
# Conditions in all cases: glycan notation: IUPAC condensed, linker removed
# [1] = biological target: Gal(b1-4)GalNAc(b1-3)[Fuc(a1-2)]Gal(b1-4)GlcNAc
# Outline: (§1)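 Columns mapping to the same glycan were averaged after glycan names were converted to IUPAC-condensed notation. The data come from 3228 arrays in the Consortium for Functional Glycomics database, limited to those with an available protein sequence. Binding is reported as a within-array Z-score averaged across arrays of one protein sequence and across linkers.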
# Gal(b1-4)Glc = biological target: Gal(b1-4)Glc
# Outline: as §1
# Gal(b1-4)Glc6S = biological target: Gal(b1-4)Glc6S
# Outline: as §1
# Gal(b1-4)GlcNAc = biological target: Gal(b1-4)GlcNAc
# Outline: as §1
# [2] = biological target: Gal(b1-4)GlcNAc(a1-6)Gal(b1-4)GlcNAc
# Outline: as §1
# Gal(b1-4)GlcNAc(b1-2)Man = biological target: Gal(b1-4)GlcNAc(b1-2)Man
# Outline: as §1
# [3] = biological target: Gal(b1-4)GlcNAc(b1-2)Man(a1-3)Man(b1-4)GlcNAc(b1-4)GlcNAc
# Outline: as §1
# [4] = biological target: Gal(b1-4)GlcNAc(b1-2)Man(a1-3)[Gal(b1-4)GlcNAc(b1-2)Man(a1-6)]Man(b1-4)GlcNAc(b1-4)GlcNAc
# Outline: as §1
# [5] = biological target: Gal(b1-4)GlcNAc(b1-2)Man(a1-3)[Gal(b1-4)GlcNAc(b1-2)Man(a1-6)]Man(b1-4)GlcNAc(b1-4)[Fuc(a1-6)]GlcNAc
# Outline: as §1
# [6] = biological target: Gal(b1-4)GlcNAc(b1-2)Man(a1-3)[Gal(b1-4)GlcNAc(b1-2)Man(a1-6)][Gal(b1-4)GlcNAc(b1-4)]Man(b1-4)GlcNAc(b1-4)[Fuc(a1-6)]GlcNAc
# Outline: as §1
# [7] = biological target: Gal(b1-4)GlcNAc(b1-2)Man(a1-3)[Gal(b1-4)GlcNAc(b1-2)Man(a1-6)][GlcNAc(b1-4)]Man(b1-4)GlcNAc(b1-4)[Fuc(a1-6)]GlcNAc
# Outline: as §1
# [8] = biological target: Gal(b1-4)GlcNAc(b1-2)Man(a1-3)[GlcNAc(b1-2)Man(a1-6)]Man(b1-4)GlcNAc(b1-4)GlcNAc
# Outline: as §1
# [9] = biological target: Gal(b1-4)GlcNAc(b1-2)Man(a1-3)[GlcNAc(b1-4)][Gal(b1-4)GlcNAc(b1-2)Man(a1-6)]Man(b1-4)GlcNAc(b1-4)GlcNAc
# Outline: as §1
# [10] = biological target: Gal(b1-4)GlcNAc(b1-2)Man(a1-3)[Man(a1-6)]Man(b1-4)GlcNAc(b1-4)GlcNAc
# Outline: as §1
# [11] = biological target: Gal(b1-4)GlcNAc(b1-2)Man(a1-6)Man(b1-4)GlcNAc(b1-4)GlcNAc
# Outline: as §1
# [12] = biological target: Gal(b1-4)GlcNAc(b1-2)Man(a1-6)[GlcNAc(b1-2)Man(a1-3)]Man(b1-4)GlcNAc(b1-4)GlcNAc
# Outline: as §1
# [13] = biological target: Gal(b1-4)GlcNAc(b1-2)Man(a1-6)[Man(a1-3)]Man(b1-4)GlcNAc(b1-4)GlcNAc
# Outline: as §1
# [14] = biological target: Gal(b1-4)GlcNAc(b1-2)[Gal(b1-4)GlcNAc(b1-4)]Man(a1-3)[Gal(b1-4)GlcNAc(b1-2)Man(a1-6)]Man(b1-4)GlcNAc(b1-4)GlcNAc
# Outline: as §1
# [15] = biological target: Gal(b1-4)GlcNAc(b1-2)[Gal(b1-4)GlcNAc(b1-4)]Man(a1-3)[Gal(b1-4)GlcNAc(b1-2)[Gal(b1-4)GlcNAc(b1-6)]Man(a1-6)]Man(b1-4)GlcNAc(b1-4)GlcNAc
# Outline: as §1
# [16] = biological target: Gal(b1-4)GlcNAc(b1-2)[Gal(b1-4)GlcNAc(b1-4)]Man(a1-3)[GlcNAc(b1-4)][Gal(b1-4)GlcNAc(b1-2)Man(a1-6)]Man(b1-4)GlcNAc(b1-4)GlcNAc
# Outline: as §1
# [17] = biological target: Gal(b1-4)GlcNAc(b1-2)[Gal(b1-4)GlcNAc(b1-4)]Man(a1-3)[GlcNAc(b1-4)][Gal(b1-4)GlcNAc(b1-2)[Gal(b1-4)GlcNAc(b1-6)]Man(a1-6)]Man(b1-4)GlcNAc(b1-4)GlcNAc
# Outline: as §1
# [18] = biological target: Gal(b1-4)GlcNAc(b1-2)[Gal(b1-4)GlcNAc(b1-6)]Man(a1-6)[Gal(b1-4)GlcNAc(b1-2)Man(a1-3)]Man(b1-4)GlcNAc(b1-4)GlcNAc
# Outline: as §1
binder,measurement,setting,value
B1,glycan array binding signal (z-score),[1],-0.351
same,glycan array binding signal (z-score),Gal(b1-4)Glc,-0.293
same,glycan array binding signal (z-score),Gal(b1-4)Glc6S,-0.545
same,glycan array binding signal (z-score),Gal(b1-4)GlcNAc,-0.134
same,glycan array binding signal (z-score),[2],-0.232
same,glycan array binding signal (z-score),Gal(b1-4)GlcNAc(b1-2)Man,-0.309
same,glycan array binding signal (z-score),[3],0.697
same,glycan array binding signal (z-score),[4],-0.443
same,glycan array binding signal (z-score),[5],-0.391
same,glycan array binding signal (z-score),[6],-0.023
same,glycan array binding signal (z-score),[7],0.634
same,glycan array binding signal (z-score),[8],-0.554
same,glycan array binding signal (z-score),[9],-0.072
same,glycan array binding signal (z-score),[10],-0.234
same,glycan array binding signal (z-score),[11],-0.488
same,glycan array binding signal (z-score),[12],-0.378
same,glycan array binding signal (z-score),[13],-0.189
same,glycan array binding signal (z-score),[14],-0.182
same,glycan array binding signal (z-score),[15],-0.296
same,glycan array binding signal (z-score),[16],-0.411
same,glycan array binding signal (z-score),[17],-0.362
same,glycan array binding signal (z-score),[18],-0.437
